{"source": "the supplement of paper PMC3724861", "note": "The other results are listed elsewhere or left out."}
{"tested_on": "T1, Caupolican (Caup) homeodomain DNA-binding domain", "T1 sequence": "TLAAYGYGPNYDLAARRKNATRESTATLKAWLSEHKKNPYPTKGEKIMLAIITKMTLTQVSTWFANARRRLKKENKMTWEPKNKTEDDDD", "test": "PBM E-score (8-mer, recovered from the published 9-mer minima) (E-score (dimensionless, -0.5 to 0.5)); Drosophila protein; higher = stronger relative binding preference, active = 0.31 or more", "in_short": "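Caup's homeodomain DNA-binding domain (residues 214-303) was produced by in vitro transcription and translation and applied at 100 nM to custom-designed protein binding microarrays. Each value is an enrichment score giving relative binding preference for a short DNA word; higher means stronger. Published 9-mer scores were the minimum of their two constituent 8-mer scores, and the 8-mer values were recovered from those minima. A cutoff of 0.31 marks candidate binding sequences.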"}
{"sequence": "TATACAAA", "PBM E-score": "inactive: 0.264"}
{"sequence": "GTCGACAA", "PBM E-score": "inactive: 0.136"}
{"sequence": "GCCGCTTA", "PBM E-score": "inactive: -0.0843"}
{"sequence": "CCGAAGAG", "PBM E-score": "inactive: -0.165"}
{"sequence": "GGGCGTGA", "PBM E-score": "inactive: -0.0887"}
{"sequence": "ACCGAGAG", "PBM E-score": "inactive: -0.108"}
{"sequence": "AACGGACC", "PBM E-score": "inactive: -0.0991"}
{"sequence": "CCCGAGTA", "PBM E-score": "inactive: 0.0585"}
{"sequence": "CCCCAAAC", "PBM E-score": "inactive: -0.0197"}
{"sequence": "CCCTCTCA", "PBM E-score": "inactive: -0.192"}
{"sequence": "ACTCGAAG", "PBM E-score": "inactive: -0.132"}
{"sequence": "CCGAACCC", "PBM E-score": "inactive: -0.194"}
{"sequence": "CGTGGGAG", "PBM E-score": "inactive: -0.161"}
{"sequence": "CTTCCTAA", "PBM E-score": "inactive: -0.082"}
{"sequence": "CCGCACTA", "PBM E-score": "inactive: -0.0633"}
{"sequence": "ATATGTCC", "PBM E-score": "inactive: 0.261"}
{"sequence": "ACCCCCAT", "PBM E-score": "inactive: -0.133"}
{"sequence": "AAAACAGA", "PBM E-score": "inactive: 0.113"}
{"sequence": "CGCTCGCA", "PBM E-score": "inactive: -0.211"}
{"sequence": "GTCAGCAC", "PBM E-score": "inactive: 0.00175"}
{"sequence": "CTTGATAA", "PBM E-score": "inactive: 0.124"}
{"sequence": "GCCACGAA", "PBM E-score": "inactive: -0.0867"}
{"sequence": "ATACTTTC", "PBM E-score": "inactive: 0.0528"}
{"sequence": "ACTCTGTC", "PBM E-score": "inactive: 0.0558"}
{"sequence": "GTTTCGCA", "PBM E-score": "inactive: -0.0304"}
{"sequence": "CATATACC", "PBM E-score": "inactive: 0.0932"}
{"sequence": "GGGGCAGA", "PBM E-score": "inactive: -0.108"}
{"sequence": "ACCCGCGT", "PBM E-score": "inactive: -0.0456"}
{"sequence": "TACTATCA", "PBM E-score": "≥ 0.172"}
{"sequence": "ACGCACCA", "PBM E-score": "inactive: -0.123"}
{"sequence": "AATCACTC", "PBM E-score": "inactive: 0.0003"}
{"sequence": "CATTCTAA", "PBM E-score": "inactive: 0.106"}
{"sequence": "ATCAGAGA", "PBM E-score": "inactive: 0.0799"}
{"sequence": "CCTGCTGC", "PBM E-score": "inactive: -0.187"}
{"sequence": "ACTAAGCA", "PBM E-score": "inactive: 0.0953"}
{"sequence": "AGGTTTCA", "PBM E-score": "inactive: -0.0675"}
{"sequence": "ACTGAGTG", "PBM E-score": "inactive: 0.0234"}
{"sequence": "GAAGTGTC", "PBM E-score": "inactive: 0.0825"}
{"sequence": "ACGGGAAC", "PBM E-score": "inactive: -0.00669"}
{"sequence": "ATTGTTCA", "PBM E-score": "inactive: 0.184"}
{"sequence": "GACTTTAC", "PBM E-score": "inactive: 0.0268"}
{"sequence": "CTAGGCGA", "PBM E-score": "inactive: -0.21"}
{"sequence": "ACGTGTTA", "PBM E-score": "active: 0.33"}
{"sequence": "AGCGTTAA", "PBM E-score": "inactive: -0.0912"}
{"sequence": "AGATAGCA", "PBM E-score": "inactive: 0.0249"}
{"sequence": "AGAAGGAA", "PBM E-score": "inactive: -0.102"}
{"sequence": "CGATTGAA", "PBM E-score": "inactive: 0.0347"}
{"sequence": "TAGCGCGA", "PBM E-score": "inactive: -0.0603"}
{"sequence": "AGGCCACG", "PBM E-score": "inactive: -0.233"}
{"sequence": "CTGTTTGC", "PBM E-score": "inactive: 0.181"}
{"sequence": "CTACATGA", "PBM E-score": "active: 0.36"}
{"sequence": "CGATAGTA", "PBM E-score": "inactive: 0.0419"}
{"sequence": "AGAACGAA", "PBM E-score": "inactive: 0.0411"}
{"sequence": "CGAGCATC", "PBM E-score": "inactive: -0.113"}
{"sequence": "AGCCGTAC", "PBM E-score": "inactive: -0.0277"}
{"sequence": "CGCGCCGA", "PBM E-score": "inactive: -0.147"}
{"sequence": "CCCGGCCA", "PBM E-score": "inactive: -0.28"}
{"sequence": "GATAAGAA", "PBM E-score": "inactive: 0.164"}
{"sequence": "TGAAGACA", "PBM E-score": "inactive: 0.11"}
{"sequence": "TCTGGGCA", "PBM E-score": "inactive: -0.175"}
{"sequence": "ACAAACAG", "PBM E-score": "inactive: 0.258"}
{"sequence": "AGCCGACT", "PBM E-score": "inactive: -0.151"}
{"sequence": "CAAGTCTC", "PBM E-score": "inactive: -0.0163"}
{"sequence": "CAGCTGCA", "PBM E-score": "inactive: -0.118"}
{"sequence": "TTACGTAA", "PBM E-score": "≥ 0.173"}
{"sequence": "AGCCCTTC", "PBM E-score": "inactive: -0.22"}
{"sequence": "CAACTAAG", "PBM E-score": "inactive: -0.0428"}
{"sequence": "GCTGCGCC", "PBM E-score": "inactive: -0.25"}
{"sequence": "AAAGGTAT", "PBM E-score": "inactive: 0.0107"}
{"sequence": "AGCAGTCG", "PBM E-score": "inactive: -0.15"}
{"sequence": "AGCCACCC", "PBM E-score": "inactive: -0.218"}
{"sequence": "ACCGAAAT", "PBM E-score": "inactive: 0.0167"}
{"sequence": "AGCATAAA", "PBM E-score": "inactive: 0.0864"}
{"sequence": "GAACCAAA", "PBM E-score": "inactive: -0.0466"}
{"sequence": "ACGTCCAC", "PBM E-score": "inactive: -0.0264"}
{"sequence": "CGTTCTCC", "PBM E-score": "inactive: -0.0158"}
{"sequence": "AGATCAGA", "PBM E-score": "inactive: 0.0577"}
{"sequence": "CGGATACC", "PBM E-score": "inactive: 0.0289"}
{"sequence": "ACCTAAGC", "PBM E-score": "inactive: -0.044"}
{"sequence": "ACGTTAAG", "PBM E-score": "inactive: 0.0104"}
{"sequence": "ACTGATAG", "PBM E-score": "inactive: 0.14"}
{"sequence": "TGCCACCA", "PBM E-score": "inactive: -0.123"}
{"sequence": "AGTAGGAC", "PBM E-score": "inactive: 0.0204"}
{"sequence": "ATCTAACG", "PBM E-score": "inactive: -0.014"}
{"sequence": "AGAAGCAC", "PBM E-score": "inactive: -0.0814"}
{"sequence": "CGGACCGC", "PBM E-score": "inactive: -0.201"}
{"sequence": "AATCTAGA", "PBM E-score": "inactive: 0.0328"}
{"sequence": "GGTGCTCA", "PBM E-score": "inactive: -0.0513"}
{"sequence": "AAAAACGC", "PBM E-score": "inactive: -0.00468"}
{"sequence": "AGATGACG", "PBM E-score": "inactive: -0.0203"}
{"sequence": "AGAGCGAC", "PBM E-score": "inactive: -0.0105"}
{"sequence": "CCTATGAG", "PBM E-score": "inactive: -0.0426"}
{"sequence": "AAGACGTC", "PBM E-score": "inactive: -0.0532"}
{"sequence": "CCCTCGAG", "PBM E-score": "inactive: -0.151"}
{"sequence": "AGTTGCGA", "PBM E-score": "inactive: 0.0916"}
{"sequence": "AACTGTCA", "PBM E-score": "inactive: 0.142"}
{"sequence": "ACCTGCAG", "PBM E-score": "inactive: -0.0444"}
{"sequence": "AGCTAGTC", "PBM E-score": "inactive: 0.0414"}
{"sequence": "CATCTCGC", "PBM E-score": "inactive: -0.141"}
{"sequence": "ACAGTGTA", "PBM E-score": "≥ 0.218"}
{"sequence": "ACAATGCG", "PBM E-score": "inactive: 0.113"}
{"sequence": "ACCCTTGA", "PBM E-score": "inactive: -0.102"}
{"sequence": "GAGTTGCC", "PBM E-score": "inactive: -0.0641"}
{"sequence": "ACTCCAAG", "PBM E-score": "inactive: 0.0284"}
{"sequence": "ACGGTAAA", "PBM E-score": "inactive: 0.0192"}
{"sequence": "TAAAGTGA", "PBM E-score": "inactive: 0.0599"}
{"sequence": "GAAGTGCA", "PBM E-score": "inactive: -0.0221"}
{"sequence": "AGTGGGGC", "PBM E-score": "inactive: -0.245"}
{"sequence": "GTCTAGCA", "PBM E-score": "inactive: 0.0138"}
{"sequence": "TTTGCAAA", "PBM E-score": "inactive: -0.0107"}
{"sequence": "TCACGTCA", "PBM E-score": "inactive: 0.0383"}
{"sequence": "GCCCTAGC", "PBM E-score": "inactive: -0.208"}
